Laboratory results taken from paper PMC11995724, “Antibiotic target discovery by integrated phenotypic and activity-based profiling of electrophilic fragments” (Cell chemical biology, 2025).
About 110 (3.4%) of roughly 3,200 compounds showed an effect of 50% or more. The list shows a part of the results.

system: T1, V. cholerae SAD30; set-up: species or system S. aureus MSSA476 (TSB) or V. cholerae SAD30 (LB); 384-well bacterial growth screen at 25 uM, OD600 relative to DMSO control; details: relative growth, OD600, LB; 25 µM; inhibitor
T1 construct: SAD30

Row | Structure (SMILES) | % of control remaining [%]
1 | C=CC(=O)N1CCOCC1CC(=O)c1ccco1 (centres unmarked) [2-M17, 1-{3-[2-(furan-2-yl)-2-oxoethyl]morpholin-4-yl}prop-2-en-1-one] | 90.8135
2 | NC(=O)c1cc(-c2ccccc2)sc1NC(=O)CCl [6-M14, 2-(2-chloroacetamido)-5-phenylthiophene-3-carboxamide] | 89.9422
3 | O=C(CCl)NC1CCSc2ccc(F)cc21 (centres unmarked) [5-M09, 2-chloro-N-(6-fluoro-3,4-dihydro-2H-1-benzothiopyran-4-yl)acetamide] | 100.872
4 | C=CC(=O)NCc1nc(C(=O)O)c(C)s1 [1-K03, 5-methyl-2-[(prop-2-enamido)methyl]-1,3-thiazole-4-carboxylic acid] | 101.495
5 | N#CC(=Cc1ccc(N)cc1)C(=O)N1CCCC1 [9-E14, 3-(4-aminophenyl)-2-(pyrrolidine-1-carbonyl)prop-2-enenitrile] | 85.1801
6 | O=C(CCl)NCc1ccccc1OC1CCCC1 [6-C14, 2-chloro-N-{[2-(cyclopentyloxy)phenyl]methyl}acetamide] | 88.5771
7 | COCc1nnc([C@]23CC[C@H]2CCN3C(=O)C(C)Cl)o1 (mixture of isomers) [5-H15, rac-2-chloro-1-[(1R,5R)-1-[5-(methoxymethyl)-1,3,4-oxadiazol-2-yl]-2-azabicyclo[3.2.0]heptan-2-yl]propan-1-one] | 96.501
8 | CC(C)NC(=O)C(C#N)=Cc1ccc(Cl)c(Cl)c1 [9-M07, 2-cyano-3-(3,4-dichlorophenyl)-N-(propan-2-yl)prop-2-enamide] | 83.0048
9 | CCC(=O)Nc1ccc(C(=O)CCl)cc1 [10-C03, N-[4-(2-chloroacetyl)phenyl]propanamide] | 111.903
10 | CC(Cl)C(=O)NC[C@H]1CCCN(C2CC2)[C@@H]1c1ccnn1C (mixture of isomers) [6-P20, rac-2-chloro-N-{[(2R,3S)-1-cyclopropyl-2-(1-methyl-1H-pyrazol-5-yl)piperidin-3-yl]methyl}propanamide] | 98.7392
11 | C=CC(=O)N1CCn2c(cnc2C(F)(F)F)C1 [3-B16, 1-[3-(trifluoromethyl)-5H,6H,7H,8H-imidazo[1,5-a]pyrazin-7-yl]prop-2-en-1-one] | 108.322
12 | CC(C)NC(=O)C(C#N)=Cc1ccc(-c2ccccc2F)o1 [8-K18, 2-cyano-3-[5-(2-fluorophenyl)furan-2-yl]-N-(propan-2-yl)prop-2-enamide] | 53.7729
13 | Cn1ccc(NC(=O)C(C#N)=Cc2ncccc2C(F)(F)F)n1 [8-F17, 2-cyano-N-(1-methyl-1H-pyrazol-3-yl)-3-[3-(trifluoromethyl)pyridin-2-yl]prop-2-enamide] | 68.7288
14 | N#CC(=Cc1ccc(Cl)cc1)C(N)=O [8-L21, 3-(4-chlorophenyl)-2-cyanoprop-2-enamide] | 77.9742
15 | C=CC(=O)N1CCC(C(=O)N2CCC(CC(N)=O)C2)CC1 (centres unmarked) [2-J14, 2-{1-[1-(prop-2-enoyl)piperidine-4-carbonyl]pyrrolidin-3-yl}acetamide] | 89.8871
16 | CCCCNC(=O)C(C#N)=Cc1c(Cl)nc2ccccn12 [9-O09, N-butyl-3-{2-chloroimidazo[1,2-a]pyridin-3-yl}-2-cyanoprop-2-enamide] | 88.1713
17 | Cl.O=C(CCl)NC1(c2nc(-c3ccccc3)c[nH]2)CCCC1 [7-J08, 2-chloro-N-[1-(4-phenyl-1H-imidazol-2-yl)cyclopentyl]acetamide hydrochloride] | 90.1371
18 | CC(Cl)C(=O)N1CCN(c2cc(-c3ccccc3F)n[nH]2)CC1 (centres unmarked) [6-N20, 2-chloro-1-{4-[3-(2-fluorophenyl)-1H-pyrazol-5-yl]piperazin-1-yl}propan-1-one] | 84.7853
19 | C=CC(=O)N1CCCC(CNS(=O)(=O)C2CC2)C1 (centres unmarked) [3-G21, N-{[1-(prop-2-enoyl)piperidin-3-yl]methyl}cyclopropanesulfonamide] | 99.1472
20 | Cc1cc(C(=O)CCl)c(C)n1C(c1ccccc1)c1ccccc1 [10-I08, 2-chloro-1-[1-(diphenylmethyl)-2,5-dimethyl-1H-pyrrol-3-yl]ethan-1-one] | 92.8891
21 | C=CC(=O)NCCn1cc(C2CCOC2)cn1 (centres unmarked) [2-L09, N-{2-[4-(oxolan-3-yl)-1H-pyrazol-1-yl]ethyl}prop-2-enamide] | 89.7327
22 | C=CC(=O)NCCC(=O)N1CCC(C)(C)S(=O)(=O)CC1 [3-G19, N-[3-(7,7-dimethyl-1,1-dioxo-1lambda6,4-thiazepan-4-yl)-3-oxopropyl]prop-2-enamide] | 95.9713

Row | Structure (SMILES) | % of control remaining [%]
23 | CCNC(=O)C(C#N)=Cc1ccc(OC(F)F)cc1 [8-E05, 2-cyano-3-[4-(difluoromethoxy)phenyl]-N-ethylprop-2-enamide] | 78.3821
24 | O=C(NC1CCCN(C(=O)CCl)C1)c1cc2ccccc2o1 (centres unmarked) [5-D05, N-[1-(2-chloroacetyl)piperidin-3-yl]-1-benzofuran-2-carboxamide] | 103.058
25 | C=CC(=O)N1Cc2ccccc2C[C@@H]1C(=O)NC1CC1 [2-G06, (3R)-N-cyclopropyl-2-(prop-2-enoyl)-1,2,3,4-tetrahydroisoquinoline-3-carboxamide] | 95.7541
26 | CC(Cl)C(=O)Nc1c(Cl)cc(Cl)cc1Cl (centres unmarked) [6-K09, 2-chloro-N-(2,4,6-trichlorophenyl)propanamide] | 82.8135
27 | C=CC(=O)NCc1cccc2c1OCO2 [1-E07, N-[(1,3-dioxaindan-4-yl)methyl]prop-2-enamide] | 92.8251
28 | C=CC(=O)N1CCC(C(=O)NCCc2c(C)n[nH]c2C)CC1 [2-D04, N-[2-(3,5-dimethyl-1H-pyrazol-4-yl)ethyl]-1-(prop-2-enoyl)piperidine-4-carboxamide] | 106.099
29 | CCOC(=O)c1cnn2ccc(NC(=O)C(C)Cl)cc12 (centres unmarked) [5-N21, ethyl 5-(2-chloropropanamido)pyrazolo[1,5-a]pyridine-3-carboxylate] | 92.1299
30 | CC(C)Oc1ccccc1C=C(C#N)C(=O)Nc1ccc(Cl)cc1 [9-L20, N-(4-chlorophenyl)-2-cyano-3-[2-(propan-2-yloxy)phenyl]prop-2-enamide] | 86.2678
31 | C=CC(=O)NCc1cc(C(F)(F)C(F)(F)F)on1 [3-B19, N-{[5-(1,1,2,2,2-pentafluoroethyl)-1,2-oxazol-3-yl]methyl}prop-2-enamide] | 110.086
32 | N#CC(=Cc1ccc(N2CCOCC2)cc1)C(=O)NCC1CCCO1 (centres unmarked) [9-O10, 2-cyano-3-[4-(morpholin-4-yl)phenyl]-N-[(oxolan-2-yl)methyl]prop-2-enamide] | 86.9477
33 | N#CC(=Cc1cccc(F)c1F)C(=O)NC(N)=O [8-H04, {2-cyano-2-[(2,3-difluorophenyl)methylidene]acetyl}urea] | 77.2944
34 | CSc1ccc(C(=O)CCl)cc1 [10-E07, 2-chloro-1-[4-(methylsulfanyl)phenyl]ethan-1-one] | 0
35 | CNC(=O)c1cc(OC2CCN(C(=O)C(C)Cl)C2)ccn1 (centres unmarked) [7-G03, 4-{[1-(2-chloropropanoyl)pyrrolidin-3-yl]oxy}-N-methylpyridine-2-carboxamide] | 92.7804
36 | Cc1nn(C)c(NC(=O)C(C)Cl)c1-c1ccccc1 (centres unmarked) [7-F21, 2-chloro-N-(1,3-dimethyl-4-phenyl-1H-pyrazol-5-yl)propanamide] | 81.0177
37 | C=CC(=O)NC(C)(C)c1nc(-c2ccccc2F)c(C)s1 [1-H04, N-{2-[4-(2-fluorophenyl)-5-methyl-1,3-thiazol-2-yl]propan-2-yl}prop-2-enamide] | 113.346
38 | CC(C)(C)C(=O)NCc1ccc(C(=O)CCl)s1 [10-P10, N-{[5-(2-chloroacetyl)thiophen-2-yl]methyl}-2,2-dimethylpropanamide] | 110.657
39 | C=CC(=O)N1CCC(Cc2nc(CC)no2)CC1 [3-A11, 1-{4-[(3-ethyl-1,2,4-oxadiazol-5-yl)methyl]piperidin-1-yl}prop-2-en-1-one] | 116.791
40 | Cc1cccc(NC(=O)C(C#N)=Cc2ccc(F)cc2)c1 [9-E12, 2-cyano-3-(4-fluorophenyl)-N-(3-methylphenyl)prop-2-enamide] | 80.0136
41 | C=CC(=O)NCCC1COCCO1 (centres unmarked) [2-H15, N-[2-(1,4-dioxan-2-yl)ethyl]prop-2-enamide] | 92.6662
42 | C=CC(=O)NCC1(c2ccccc2Cl)CCCCC1 [1-A17, N-{[1-(2-chlorophenyl)cyclohexyl]methyl}prop-2-enamide] | 63.0792
43 | Cc1ccc2nc(-c3ccc(N4C(=O)C=CC4=O)cc3)sc2c1 [10-K18, 1-[4-(6-methyl-1,3-benzothiazol-2-yl)phenyl]-2,5-dihydro-1H-pyrrole-2,5-dione] | 99.1233
44 | CC(Cl)C(=O)NCc1ccc(F)cc1 (centres unmarked) [5-A19, 2-chloro-N-[(4-fluorophenyl)methyl]propanamide] | 104.739
